Test results taken from PubChem BioAssay AID1346428 (National Center for Advancing Translational Sciences (NCATS), 2018).
Among all 48,000 compounds or so, about 1,200 (2.5%) were called active. About 2% were inconclusive and are not listed.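 The calls were made as follows: active = activation of at least 60% and not above a set upper limit (about 1 call in 100 departs from these limits); inconclusive = activation of 40% to 60%, or above that upper limit; inactive = activation under 40%.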 The list shows a part of the results.

Target: Probable G-protein coupled receptor 32 (Homo sapiens) (UniProt O75388)
Sequence of UniProt O75388 (O75388 whole entry, looked up): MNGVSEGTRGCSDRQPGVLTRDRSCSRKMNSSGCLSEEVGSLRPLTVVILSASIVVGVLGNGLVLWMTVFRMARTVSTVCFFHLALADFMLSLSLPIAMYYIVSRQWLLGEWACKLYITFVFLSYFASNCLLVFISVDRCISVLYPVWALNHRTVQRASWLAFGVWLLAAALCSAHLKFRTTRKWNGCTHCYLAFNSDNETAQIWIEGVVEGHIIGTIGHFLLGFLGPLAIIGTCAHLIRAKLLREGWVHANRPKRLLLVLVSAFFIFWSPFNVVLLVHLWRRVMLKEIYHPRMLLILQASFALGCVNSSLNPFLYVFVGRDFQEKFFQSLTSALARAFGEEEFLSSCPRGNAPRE
Experiment: qHTS for Agonists of Human Resolvin D1 Receptor DRV1; also: 0% is about no effect
Conditions: CHO-K1 GPR32 beta-arrestin PathHunter luminescence, 90 min; at 76.9 µM; active compounds read high; zero percent set by DMSO-only wells
How it was run: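 CHO-K1 cells stably expressing ProLink-tagged GPR32 and Enzyme Activator-tagged beta-arrestin were seeded at 2,500 cells/well overnight, exposed to compounds for 90 min at 37 °C, then read by beta-Gal complementation chemiluminescence after 1 h detection reagent.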

activation, inactive:
Cc1ccc(Cl)cc1NC(=O)c1oc2ccc(S(=O)(=O)N3CCC4(CC3)OCCO4)cc2c1C -2.11%
Fc1ccc(CNc2nc3c(-c4ccc(F)cc4)nnn3c3ccccc23)cc1 -6.7%
CCCCSc1ncnc2c1sc1nc(N3CCOCC3)c3c(c12)CCCC3 -6.52%
COc1ccc(-c2noc(CSCC(=O)Nc3ccc(C)cc3Br)n2)cc1OC -11.5%
COc1cccc(/C=C/c2nc(C#N)c(N(C)Cc3ccccc3)o2)c1 19.9%
COCCCNC(=O)CN1C(=O)c2c(c3ccccc3n2C)C1c1ccc(OC)cc1 (stereo not given) -15.2%
COc1cc(C(=O)NCc2ccc3c(c2)CCN3C(=O)c2ccncc2)cc(OC)c1OC -12.4%
Cc1ccc(NC(=O)NCCc2c(C)nn(C)c2C)c(Cl)c1 5.94%
Cc1ccc(NC(=O)c2cc(-c3ccc4c(c3)OCO4)on2)cc1 -0.8%
CCOc1ccc(CNC(=O)COc2cc(=O)n(C)c3ccccc23)cc1 12.7%
CC1=C(C(=O)Nc2ccc(C)cc2)C(c2ccccc2Cl)n2nnnc2N1 (stereo not given) -2.74%
CCCN1CCN(CCCNC(=O)Cn2nc(C)n3c(cc4cc(F)ccc43)c2=O)CC1 -5.44%
Cc1cccc2c1-c1sc(C(=O)NCc3ccccc3Cl)cc1CO2 -17.9%
COc1cc(NC(=O)c2ccc(C(=O)Nc3cc(OC)c(Cl)cc3OC)cc2)c(OC)cc1Cl -15.1%
COc1cccc(NC(=O)c2cc(CN3CCOCC3)on2)c1 6.46%
CCC(=O)N1CCc2cc(Br)cc(S(=O)(=O)CCC(=O)NCc3ccccc3)c21 -10.2%
Cc1nn2c(=O)cc(COC(=O)c3ccc(C(C)(C)C)cc3)nc2s1 -21.2%
CSc1cccc(NC(=O)CN(C)S(=O)(=O)c2ccc3c(c2)n(C)c(=O)c(=O)n3C)c1 -6.95%
CCCCCCCCCCCCCCCC[N+](C)(C)Cc1ccccc1 11.8%
COc1ccccc1CNC(=O)c1c2c(nc3ccccc13)C(=O)N(C1CCCCC1)C2 -5.61%
O=c1ccc2cc(S(=O)(=O)N3CCCC3)ccc2[nH]1 -21.7%
COc1ccc(CNC(=O)Cc2c(C)c3ccc(O)cc3oc2=O)cc1 20.2%
Cc1cccc(C)c1NC(=O)c1ccc2nc(CCc3ccccc3)oc2c1 -18.8%
Cc1cccc(NC(=O)c2sc3cccc(Cl)c3c2Cl)c1 -14.1%
CCCCNC(=O)CSc1c2c(nc3ccc(Cl)cc13)CCCC2 -17.8%
COc1ccc(-c2nc3ccccc3s2)cc1NC(=O)c1ccccc1OC -0.45%
CNC(=O)c1c(NC(=O)c2cc(=O)c3ccccc3o2)sc2c1CCC2 -0.0766%
COc1ccc(CCNC(=O)c2ccc3c(c2)nc2n3CCOC2)cc1OC -6.17%
COc1cccc(-c2cc(C(F)(F)F)nc(NCc3ccc(F)cc3)n2)c1 -22.3%
COc1cccc(-c2nc(S(=O)(=O)c3ccccc3)c(NCc3ccccc3)o2)c1 1.29%
Cn1c(=O)c2sccc2n2c(CCCC(=O)Nc3ccc(F)c(F)c3)nnc12 1.51%
COCCCNC(=O)c1c(C)nn(-c2ccc(F)cc2)c1-n1cccc1 13.5%
CC(C)c1ccc(NC(=O)CCS(=O)(=O)c2ccc(Br)s2)cc1 -0.0674%
CC1=C(C(=O)Nc2ccccc2)C(c2ccncc2)n2nc(SCc3ccccc3)nc2N1 (stereo not given) 9.58%
Cc1c(C(=O)Nc2ccc(F)cc2F)nnn1-c1ccccc1Br 13.5%
CCc1nn(CC(=O)NCc2cccc(OC)c2OC)c(=O)c2cc3occc3n12 -13.6%
Cc1nnc(N2CCC(C(=O)NCc3ccc(N(C)C)cc3)CC2)c2nn(-c3ccccc3)c(C)c12 -14.9%
COc1ccc(NC(=O)C2=C(C)Nc3nc(SC)nn3C2c2cc(OC)ccc2OC)cc1 (stereo not given) 28.7%
O=C(NCCCO)C(=O)Nc1c2c(nn1-c1ccc(F)cc1)CSC2 -12.8%
Cc1ccc(C(=O)COC(=O)C(Cc2c[nH]c3ccccc23)NC(=O)c2ccc(Br)cc2)cc1 (stereo not given) -16.3%
O=C(CSc1nc2ccccc2n1Cc1cccc(Cl)c1)N1CCN(c2ccc(F)cc2)CC1 -19.2%
CN(CC(=O)Nc1cccc(C#N)c1)S(=O)(=O)c1cc2c(cc1Cl)NC(=O)CO2 17.3%
CCOc1ccccc1CNC(=O)CC(C)n1ccc(C)n1 (stereo not given) -1.78%
O=C(Nc1ccc(Cl)cc1)c1ccc2c(c1)N(Cc1ccccc1)C(=O)c1ccccc1S2(=O)=O -18.2%
Cc1cc2oc(C(=O)Nc3cccc(-c4nc5ccccc5o4)c3)c(C)c2cc1Cl 28%
COc1ccc(OC)c(CNC(=O)Cn2nc(C)c3c(C)n(-c4ccccc4)nc3c2=O)c1 -8.21%
O=C1C2=C(Nc3ccccc3SC2c2c(F)cccc2Cl)c2ccccc21 (stereo not given) -7.24%
COc1ccc(NC(=O)Nc2cn(CC(C)C)c(=O)c3ccccc23)c(OC)c1 -28%
COc1ccc(-c2cc(-c3ccccc3)nc3c2COc2ccc(Cl)cc2-3)cc1 4.47%
O=C(NCCc1ccc(F)cc1)C(=O)NCC(c1cccs1)S(=O)(=O)c1cccs1 (stereo not given) 4.59%
COC(=O)c1ccc(NS(=O)(=O)c2ccc3[nH]c4c(c3c2)CCCCC4)cc1 16.7%
Cc1oc2ncn(C)c(=O)c2c1C(=O)N(C)c1ccccc1F -11.2%
CC(C)(C)OC(=O)N1CCC(c2c(C(=O)N3CCN(C4CCCCC4)CC3)cnn2-c2cccc(Cl)c2)CC1 -25.4%
COc1ccc(NC(=O)CSC2=Nc3ccccc3C3=NC(CCC(=O)NCCc4ccccc4)C(=O)N23)cc1 (stereo not given) -6.89%
CCN1C(=O)C(O)(c2c(C)[nH]c3ccccc23)c2ccccc21 (stereo not given) 48.3%
